# Read counts are not given, so values of variants with three or more changes are uncertain.
# B1: OR4K15 (parent)
# chain: GUUAACGGUCAUAGGCCAUGGAAACUAGGAGCACCAUUUCGCUGCCAGUGAAGAAAUGAACAAAGAAAAUCUGGGCCAGGCAGGCAUCAAAAGAAAUAGUCUUGCGCUCAACCAGAAAGUCUGUAAUCAUUUUAAGGGUA
# Variants of: B1
# Test: self-cleavage, relative activity (ratio to wild type); higher = more cleavage; in vitro, sequencing; the parent is a self-cleaving ribozyme
row,Variant,self-cleavage
1,U9C U38A A47C A52G A91G,0.98
2,U9C A59G U108A,0.09
3,A5C A62G U131C,1.52
4,A5G A98G A116U,0.06
5,A5G U9C U43C A66U A94G,0.69
6,G41A A68U A94G U102C,2.33
7,U2C A5G A59G A62G A95G U103G U108A G123A U133C,0.03
8,A56G A68G A86G A91G U124A,0.06
9,A55G U120C A129U,1.13
10,A30G A129U U131C,1.01
11,A11G A55G A95U U127A,1.36
12,A5U A117G U127C,1.72
13,A13U A55G U132C,0.82
14,A51G A54G A82C A91G,0.07
15,U9C U39C U102C,1.58
16,U38C A96G U120C,0.94
17,A62U U72C U100A,0.08
18,A5G A24G A30G A66G C113U,0.28
19,A60G U102C U122C,1.05
20,U43A U87C A116C U130C,0.02
21,U38C G48U U108C,0.01
22,A126G A129G U133A,0.5
23,A24G A69U U122C G137A,1.13
24,A22G A47G U72C,0.61

row,Variant,self-cleavage
1,A30G U43C A63G A69G U72C A82G A118G,0.18
2,G31A U37C A60G,1.3
3,A54G U103C U127C,0.32
4,A64G U100A G115A G137A,0
5,A36G U38C U102C U131A,2.38
6,A27U A66G A86U U120A,1.97
7,A54G A96U U102C,1.86
8,U38A U49C A91G,1.01
9,A18U A66U A92G,1.42
10,A36G A90U U127A U131A A140C,1.8
11,A36G A116G U120C,0.25
12,U19A A24G A95G U108C A118U,0
13,U2C A23G A69G A90G,0.69
14,A59G A98G A110G A111G,0.02
15,U2C U38C A117G,0.94
16,U49C A94G A117G,1.24
17,A11U U39C U49A A56G,0.89
18,A5U U9C U72C A116G,0.13
19,U2C A56G A92G A110G A126G G138A,0.08
20,A18U U49A A114U,0.03
21,A54G A55G A110G G136A,0.15
22,A59G A92G U100C,2.71
23,U9C A23G A33G A52G A126G,0.67
24,A51U U122G A134G,2.11

row,Variant,self-cleavage
1,A13G A24U A67G A98C,1.56
2,U9C U38C A60G U124C U132C A140G,0.16
3,U43C A63G A116G,1.34
4,U43A A54U U72A,0.11
5,U97C U102A C109A,0.19
6,U2C A5G A23G A51U U103A,0.64
7,C6A A18G A67G,0.48
8,G20A A22U A23G A78U A111G U132C,0.05
9,A13G U57C A114G U130C,0.14
10,A13U A51G A78U,0.16
11,U9C U12C U43G A52G A67G A78U,1.05
12,A11U A33G A51G,0.19
13,G28A A60G A64U A116G,0.14
14,A64G A69G U100G A117G,2.17
15,A18U A33G A52G A118G,0.35
16,A30U A51C A69G,1.17
17,U9C A23U A64G,0.64
18,A56G A96G A111G,0.04
19,A56G A60G A140U,1.23
20,A91G U102C A118G A129G,1.09
21,U49C A67G U102A A118G U130G U139C,0.25
22,A23G A24G A33G,1.01
23,A64G A118G A129G,0.14
24,A51G A56G A92G U120C U131C,0.42

row,Variant,self-cleavage
1,C6U A18C A22G,0.9
2,A51U A55G U130C,0.09
3,A5G U19A U97A C121U,1.27
4,A24G U72A A78G C113U,0.03
5,U72A A116U U132A,0.15
6,U38A U72C A94G,0.42
7,U57C A66G A68U U108C A117G,0.01
8,U37C A59G A69U U87C U102C U108C U139A,0
9,U2A A11U U102A,0.35
10,G15A A59G C105U,0.18
11,A5G C107U U130C,0
12,G14U U37C G106U A114G,0.01
13,U43A A68G A82G A94G A129G U132G,0.21
14,U87A A118G U130G,0.3
15,U2C U9C A33U A68G A92G C112A,0.06
16,U2A A90G A116G,0
17,A27G A98U U120C,1.29
18,A36G C109A U132C,0.21
19,U43C G44A U131A,1.1
20,A5G U12C A13G A33G A47G U131C,0.88
21,U9C A36G A66G A90G,1.04
22,A56G G75U A140G,0.14
23,A24U U122C U131C,1.32
24,U19A A69G A96G,1.8

row,Variant,self-cleavage
1,G7A A18G A56G A94G,1.47
2,U2C U9A A69U A126C,0.44
3,A4G A55G U102A,0.9
4,A33G A95G U120C U130C,0.45
5,U38C G48U A51G,0.65
6,A89G A116U U133C,0.66
7,A30G U43C C81U U131G,0.2
8,C71A U108C U131C,0
9,U12C A36G U49C A67G,0.71
10,A55G A60G A86G,1.29
11,U37C A47G A54G U72C A89U A135G,0.4
12,A30G A33U U39C A126G,0.94
13,U9C A36U A55G A114G,0.15
14,A66G U103C A135G,0.92
15,C6U A18G A47G,1.18
16,A47U A69G A91G U102C,2.16
17,A63U A90G A95G,2.37
18,A56G A78G U130A,0.08
19,A60G A86U C105U C121A,0.45
20,U70C A89G A94G,0.46
21,A94U A110U A111G,0.01
22,A11G A18G C85U U103C,0.21
23,U12C U19G A90G A91G A114G U130C,0.17
24,U19C A78G U103C U108C A118C U132C A140G,0

row,Variant,self-cleavage
1,U37A A55G U72A,0.25
2,A36G A64G U127C,1.13
3,A66U U87A C88U,1.09
4,C17A U39C U100C A116G A135U,0.68
5,A33U A51G A62G G73U A110G,0.01
6,U37C A55G U100C,2.08
7,A22G A82G A125G,0.07
8,A22C U37C A68G,1.76
9,U39C A63U U108C A117G A118C U122C,0.01
10,A4G U43A A92G,2.01
11,A33U U39C A69G U72A A90G A95G A96G A114G,0.08
12,U9C C40U U132A,0.51
13,A47C A51G C88U,1.63
14,A86G A95G U100A A110G U133C,0.08
15,A13G U57C A118G,0.56
16,A111G A116U U124C U130C A135C,0
17,A54G A59G A66G U102C U108C,0.02
18,G80U A82G U100A,0.04
19,A11U U12C A23U A59G A86G A125U A140G,0.55
20,A52G A59G A91G A118G,0.49
21,G8U U9C G44A A63G A92G A96G,2.43
22,A69U A90G U103A,0.69
23,C40U C113U U124C,0.06
24,A56G A69U U108A,0.04

row,Variant,self-cleavage
1,A5G A52G A91U C128A,1.54
2,U19C U38C A114G A118U,0.09
3,A5G U87C G104A C112U,0.03
4,U39A A94G U102C A116U,0.65
5,U39C U72C A86U A96G,0.05
6,U2C A18U U43C A86G A92C U122C,0.63
7,A33C U72C U87A,0.16
8,A60G A67G A90G U131C,0.2
9,U72C C81U A82G U87C A96G,0.06
10,A82C U108G U124C,0
11,A56U A67G A135U,2.15
12,U43C U103C U124C A140C,0.68
13,U38C A98G A117G,1.21
14,U2C A60G A66U U70C A110G,0.06
15,A69G U70C C77A,0.11
16,A11U U37C U49C U132C,1.28
17,C6U A13U A55G A96G,1.12
18,A23G A47G G65A,0.48
19,A59U U102C U122C,1.16
20,A22U A63G A64G G65A U120C,1.91
21,A24G U39C A54G,0.64
22,U37C A54G U131C,0.57
23,A64G U108C U131C,0.01

# Reference: the RNAGym collection of RNA variant scans (doi:10.7554/elife.90254)
